Laboratory results taken from PubChem BioAssay AID504832 (National Center for Advancing Translational Sciences (NCATS), 2011).
About 18,000 (5.8%) of roughly 310,000 compounds were called active. The shares of active, inactive and inconclusive entries below differ from those in the screen. Calls come from the whole dose curve; as a rule, active = well fitted inhibition curve with a large enough effect; inconclusive = small, poorly fitted or top-dose-only effect, or another doubt; inactive = no such curve, though single readings can be large or run the other way. No potency is given beside an inconclusive call; the fits are too rough.

Experiment: Primary qHTS for delayed death inhibitors of the malarial parasite plastid, 48 hour incubation
Conditions: P. falciparum luciferase growth in erythrocytes; series mostly up to 28.7 µM; activity change, negative = inhibition: at the top concentration
How it was run: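 Read-out is firefly luciferase luminescence from an integrated reporter in P. falciparum, so falling signal marks reduced parasite growth. Infected erythrocytes were at 2% hematocrit and 0.1% parasitemia (final) in Albumax-supplemented RPMI 1640.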
% is set by controls: 0 for no effect and ±100 for the full control effect; potency is the fitted concentration of half-maximal effect; tags give direction and shape of the fitted curve.

Question: With `CCC(Oc1ccc(C)cc1)C(=O)Nc1ccccc1C(=O)N1CCOCC1` (stereo not given) as the molecule, how does the “activity change, negative = inhibition” value read?
Answer: Its value is inactive: -2.16%.

Question: Which Potency does the source give for `O=c1cnnc(N/N=C/c2ccccn2)[nH]1` here?
Answer: Its Potency is inconclusive [inhibitor, full curve].

Question: With `Cc1ccc2cc(NC(=O)c3ccc(C(C)(C)C)cc3)ccc2n1` as the molecule, how does the activity change, negative = inhibition read?
Answer: Its activity change, negative = inhibition is inactive: -0.603% [at 0.00184 µM].

Question: For `COC(=O)c1cc2sc(Cl)cc2n1CC(=O)Nc1ccc(OC)c(OC)c1OC`, which Potency is on record?
Answer: Its Potency is active: 0.415 µM.

Question: Which Potency does the source give for `O=C(CSc1nc(-c2ccccc2Cl)ns1)Nc1ccc2c(c1)OCO2` here?
Answer: Its Potency is active: 1.17 µM.

Question: Which “activity change, negative = inhibition” value does the source give for `CCN(CCn1cccn1)C(=O)c1cc(COc2ccc(F)c(F)c2)on1` here?
Answer: The value was inactive: 31.3%.

Question: For `O=C(C(=O)N1CCCCC1)c1cn(CC(=O)N2CCCCCC2)c2ccccc12`, which Potency is on record?
Answer: Its Potency is inconclusive [inhibitor, single point].

Question: For `COc1ccc(/C=C/C(=O)NC(=S)N2CCN(c3ccccn3)CC2)cc1OC`, which Potency is on record?
Answer: The Potency was inconclusive [inhibitor, full curve, poor fit].

Question: Which Potency does the source give for `O=C(NCCC1=CCCCC1)c1cc(S(=O)(=O)N2CCCCC2)ccc1Cl` here?
Answer: The Potency was inconclusive [inhibitor, single point].

Question: With `N#CCn1c(Cc2ccccc2)nc2ccccc2c1=O` as the molecule, how does the Potency read?
Answer: Its Potency is inconclusive [inhibitor, partial curve, poor fit].

Question: With `Cc1ccc(NC(=O)CSc2ccc3nnc(-c4ccccn4)n3n2)cc1` as the molecule, how does the Potency read?
Answer: Its Potency is inconclusive [inhibitor, single point].

Question: With `COc1ccc(OCCn2cc(/C(N)=N/O)c3ccccc32)cc1` as the molecule, how does the Potency read?
Answer: The Potency was inconclusive [inhibitor, single point].

Question: With `FC(F)(F)c1cccc(N/N=C/c2ccccc2)c1` as the molecule, how does the Potency read?
Answer: The Potency was inconclusive [inhibitor, single point].

Question: Which “activity change, negative = inhibition” value does the source give for `CCOc1ccccc1CN1CCN(Cc2ccc(C)o2)C(CCO)C1` (stereo not given) here?
Answer: Its value is inactive: -3.31%.

Question: For `COCCn1c(SCC(=O)N2CCCc3ccccc32)nc2cccnc21`, which Potency is on record?
Answer: Its Potency is inconclusive [inhibitor, single point].

Question: With `CCOC(=O)CSC1=C(C#N)C(c2ccc(C)o2)CC(=O)N1` (stereo not given) as the molecule, how does the “activity change, negative = inhibition” value read?
Answer: Its value is inactive: 9.43%.

Question: Which “activity change, negative = inhibition” value does the source give for `CC(C)(C)C(=O)Oc1cc(N)n(S(=O)(=O)c2ccc(F)cc2)n1` here?
Answer: Its value is inactive: 6.33%.

Question: Which Potency does the source give for `CCOC(=O)C1=C(C)NC(=O)NC1c1ccccc1OCc1c(F)cccc1Cl` (stereo not given) here?
Answer: The Potency was inconclusive [inhibitor, single point].

Question: Which “activity change, negative = inhibition” value does the source give for `CC1(c2ccccc2)NC(=O)N(NC(=O)COC(=O)c2cc(Br)ccc2O)C1=O` (stereo not given) here?
Answer: Its value is inactive: 0%.

Question: Which “activity change, negative = inhibition” value does the source give for `COc1ccccc1OCCSc1nc(C)c(Cc2ccccc2)c(=O)[nH]1` here?
Answer: Its value is inactive: 67.2%.

Question: With `Cc1cccc(NC(=O)CN(CC2CCCO2)C(=O)c2ccc(S(C)(=O)=O)cc2)c1C` (stereo not given) as the molecule, how does the “activity change, negative = inhibition” value read?
Answer: The value was inactive: 55.6%.

Question: Which Potency does the source give for `CCOc1cc(OCC)c(C(=O)CCC(=O)O)cc1OCC` here?
Answer: Its Potency is inconclusive [inhibitor, partial curve, poor fit].

Question: Which Potency does the source give for `COc1ccc2[nH]c3c(c2c1)CCN1C(=O)N([C@@H](C)C(=O)NCc2ccc(C)cc2)C(=O)[C@]31C` here?
Answer: Its Potency is inconclusive [inhibitor, partial curve, poor fit].

Question: For `CN(C)Cc1c[nH]c2ccccc12`, which Potency is on record?
Answer: The Potency was inconclusive [inhibitor, partial curve, poor fit].

Question: For `CN(C)c1ccc(C(CNS(=O)(=O)c2ccc3ccccc3c2)N2CCOCC2)cc1` (stereo not given), which Potency is on record?
Answer: The Potency was inconclusive [inhibitor, single point].

Question: Which Potency does the source give for `COc1ccc(C2C(C(=O)Nc3cc(C)on3)c3ccccc3C(=O)N2C)cc1` (stereo not given) here?
Answer: Its Potency is inconclusive [inhibitor, single point].

Question: For `CCc1nc(SCc2cc(Cl)ccc2OC)n[nH]1`, which Potency is on record?
Answer: Its Potency is inconclusive [inhibitor, partial curve].

Question: Which Potency does the source give for `Cn1c(=O)[nH]c(=O)c2c1nc(N1CCCCC1)n2C/C=N/Nc1ccc(C(=O)O)cc1` here?
Answer: Its Potency is inconclusive [inhibitor, partial curve, poor fit].

Question: Which Potency does the source give for `CCO[C@@H]1OC(C(=O)NCc2nc3ccccc3[nH]2)=C[C@H](C2CC2)[C@H]1CCCO` here?
Answer: Its Potency is inconclusive [inhibitor, single point].

Question: With `O=C(Nc1ccccc1Cc1ccccc1)c1oc2ccccc2c1COc1ccccc1` as the molecule, how does the Potency read?
Answer: The Potency was inconclusive [inhibitor, single point].

Question: Which Potency does the source give for `COc1ccc(C(=O)C/C(=C\C(=O)c2ccc(C)cc2)c2ccccc2)cc1` here?
Answer: The Potency was inconclusive [inhibitor, partial curve, poor fit].

Question: Which “activity change, negative = inhibition” value does the source give for `c1ccc(Oc2cccc(NC3=NCCC3)c2)cc1` here?
Answer: The value was inactive: -6.54%.

Question: Which Potency does the source give for `CCOC(=O)C1CCCN(CC(=O)Nc2ccc(C(=O)Nc3ccccc3OC)cc2)C1` (stereo not given) here?
Answer: Its Potency is active: 11.7 µM.

Question: For `O=C(Nc1cccnc1)c1ccc(-c2cc(Cl)ccc2Cl)o1`, which Potency is on record?
Answer: The Potency was inconclusive [inhibitor, full curve].

Question: Which Potency does the source give for `O=C1CC(c2cc(Br)ccc2F)c2cc3c(cc2N1)CCC3` (stereo not given) here?
Answer: Its Potency is inconclusive [inhibitor, full curve, poor fit].

Question: For `Cc1cccc(C(=O)NC(Oc2ccccc2)C(Cl)(Cl)Cl)c1` (stereo not given), which Potency is on record?
Answer: Its Potency is inconclusive [inhibitor, single point].

Question: For `O=S(=O)(c1ccc(NC(=S)NCc2ccncc2)cc1)N1CCCCC1`, which Potency is on record?
Answer: The Potency was inconclusive [inhibitor, partial curve].

Question: Which “activity change, negative = inhibition” value does the source give for `CSc1cccc(NC(=S)N2CCC(N(C)C3CCCCC3C)CC2)c1` (stereo not given) here?
Answer: Its value is inactive: -29.9%.

Question: Which Potency does the source give for `CC1CC(=O)Nc2ccccc2N1C(=O)CSc1ncnc2sccc12` (stereo not given) here?
Answer: Its Potency is inconclusive [inhibitor, partial curve, poor fit].

Question: For `Clc1ccc(-c2csc(N/N=C/c3ccco3)n2)cc1`, which Potency is on record?
Answer: Its Potency is inconclusive [inhibitor, single point].

Question: For `CCOC(=O)CNC(=O)COc1coc(CN2CCN(c3ccccc3F)CC2)cc1=O`, which “activity change, negative = inhibition” value is on record?
Answer: The value was inactive: -17.2%.

Question: For `CCN(Cc1ccccc1)S(=O)(=O)c1nc2nc(C)c(C)c(C)n2n1`, which “activity change, negative = inhibition” value is on record?
Answer: Its value is inactive: -1.28%.

Question: With `N#Cc1ccc(-c2c(-c3ccccc3)ncc3cc(F)ccc23)cc1` as the molecule, how does the Potency read?
Answer: The Potency was inconclusive [inhibitor, single point].

Question: For `O=C(CCCN1C(=O)CSc2ncccc21)N1CCN(c2cccc(C(F)(F)F)c2)CC1`, which Potency is on record?
Answer: The Potency was inconclusive [inhibitor, single point].

Question: For `Cc1cc(Br)cc(C)c1NC(=S)NC(=O)CC(C)C`, which Potency is on record?
Answer: The Potency was inconclusive [inhibitor, single point].

Question: With `Cc1ccccc1NCC(=O)N=Nc1c(O)[nH]c2ccc([N+](=O)[O-])cc12` as the molecule, how does the Potency read?
Answer: The Potency was inconclusive [inhibitor, partial curve, poor fit].

Question: For `COc1ccc(C(=O)CSc2nnc(CC(=O)Nc3ccccc3OC)n2C)cc1`, which “activity change, negative = inhibition” value is on record?
Answer: Its value is inactive: 2.86%.

Question: For `CCCCCCn1c(C(C)NC(=O)c2ccco2)nc2ccccc21` (stereo not given), which Potency is on record?
Answer: The Potency was inconclusive [inhibitor, single point].

Question: For `C=C(C)C(=O)Nc1cccc(C2=NOC3(C2)C[C@@H](C(N)=O)N(C(=O)CCCCC)C3)c1` (stereo not given in full), which Potency is on record?
Answer: The Potency was inconclusive [inhibitor, single point].

Question: For `COC(=O)CNc1nc(C2CC2)nc2c1nnn2Cc1ccccc1Cl`, which Potency is on record?
Answer: The Potency was inconclusive [inhibitor, full curve, poor fit].

Question: Which Potency does the source give for `COc1ccc2c(c1)Cc1sc(NC(=O)c3cccs3)nc1-2` here?
Answer: Its Potency is active: 5.86 µM.

Question: With `Clc1ccc(Sc2cc(Cl)c(-c3ccccc3)nn2)cc1` as the molecule, how does the Potency read?
Answer: The Potency was inconclusive [inhibitor, single point].

Question: For `Cc1ccccc1CN(c1ccc(C(=O)N/N=C/c2ccc(OCC(N)=O)cc2)cc1)S(C)(=O)=O`, which Potency is on record?
Answer: Its Potency is inconclusive [inhibitor, partial curve].

Question: Which Potency does the source give for `CCc1ccc(-c2csc3[n+]2CCN3C(C)=O)cc1` here?
Answer: Its Potency is active: 2.94 µM.

Question: Which “activity change, negative = inhibition” value does the source give for `Cc1nn(C)c(Cl)c1/C=N/OC(=O)c1ccc(F)cc1` here?
Answer: Its value is inactive: -3.05%.

Question: With `C=CCN(C)CC/C=C1\c2ccccc2CSc2ccccc21` as the molecule, how does the Potency read?
Answer: Its Potency is inconclusive [inhibitor, single point].

Question: Which “activity change, negative = inhibition” value does the source give for `Cn1ncc(Br)c1C(=O)Nc1cccc(C(F)(F)F)c1` here?
Answer: The value was inactive: 26.4%.

Question: Which “activity change, negative = inhibition” value does the source give for `COc1ccc(CN2CCNC(=O)C2CC(=O)NC2CCC2)c(OC)c1` (stereo not given) here?
Answer: The value was inactive: 6.66%.

Question: With `O=C(Nc1ccc2oc(-c3ccccc3F)nc2c1)c1cncc(Br)c1` as the molecule, how does the Potency read?
Answer: Its Potency is active: 8.28 µM.

Question: With `Cc1ccc2[nH]c(-c3cccc(F)c3)cc(=O)c2c1` as the molecule, how does the Potency read?
Answer: Its Potency is active: 5.22 µM.

Question: For `CCC1CCCCN1CC(=O)c1ccc(OC(F)F)cc1` (stereo not given), which Potency is on record?
Answer: The Potency was inconclusive [inhibitor, single point].

Question: Which Potency does the source give for `CCNC(=O)c1c(NC(=O)C2COc3ccccc3O2)sc2c1CCCC2` (stereo not given) here?
Answer: The Potency was inconclusive [inhibitor, partial curve].

Question: For `CCOc1cc(CNc2ccc(O)cc2)ccc1OCc1ccc(Cl)cc1Cl`, which Potency is on record?
Answer: Its Potency is inconclusive [inhibitor, single point].

Question: Which Potency does the source give for `CCOC(C[n+]1c(-c2ccccc2)cc(C)cc1-c1ccccc1)OCC` here?
Answer: The Potency was active: 1.47 µM.

Question: With `COc1cccc(OC)c1C(=O)N1CCN(C(=O)c2ccc(-c3ccccc3)cc2)CC1` as the molecule, how does the Potency read?
Answer: Its Potency is inconclusive [inhibitor, partial curve, poor fit].

Question: For `Oc1ccc(CNc2ccc(C(F)(F)F)cc2Cl)c2cccnc12`, which Potency is on record?
Answer: Its Potency is active: 1.65 µM.

Question: With `Cc1nn(Cc2ccccc2)c(C)c1CNC(=O)CN=C1NS(=O)(=O)c2ccccc21` as the molecule, how does the Potency read?
Answer: Its Potency is inconclusive [inhibitor, partial curve, poor fit].

Question: With `COCCn1c(SCC(=O)c2ccc3c(c2)OCCO3)nnc1-c1ccoc1C` as the molecule, how does the Potency read?
Answer: The Potency was inconclusive [inhibitor, single point].

Question: For `COCCNc1nnc(SCC(=O)Nc2cc(-c3ccccc3)nn2-c2ccccc2)s1`, which Potency is on record?
Answer: The Potency was inconclusive [inhibitor, partial curve, poor fit].

Question: For `CCOC(=O)Cn1c(=NC(=O)C(C)C)sc2c(C)cc(C)cc21`, which Potency is on record?
Answer: The Potency was active: 1.85 µM.
